# Measured values taken from a collection of fitness landscapes (doi:10.1016/j.celrep.2020.107928).
# Over roughly 81,000 sequences, “one-hybrid fitness for binding NBS DNA” has its median near -0.1; the highest 2% begin near 0.36. The list shows a part of the results.
# B1: Caulobacter ParB omega fusion; a variant is named by its letters at X, in order, B8GW30 (parent)
# chain: MESVVVGEPGMSEGRRGLGRGLSALLGEVDAAPAQAPGEQLGGSREAPIEILQRNPDQPRRTFREEDLEDLSNSIREKGVLQPILVRPSPDTAGEYQIVAGERAWRAAQRAGLKTVPIMVRELDDLAVLEIGIIENVQRADLNVLEEALSYKVLMEKFERTQENIAQTIGKSXSHVANXMRLLXLPDEVQSYLVSGELTAXHARAIAAAADPVALAKQIIEGGLSVRETEALARKAPNLSAGKSKGGRPPRVKDTDTQALESDLSSVLGLDVSIDHRGSTGTLTITYATLEQLDDLCNRLTRGI
# Variants of: B1
# Assay: one-hybrid fitness for binding NBS DNA (the Noc-binding site; scaled: cognate 1, non-cognate 0); higher = stronger binding
# Conditions: with NBS DNA site
# Summary of the method: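 Fitness is the rescaled log change in variant-to-wild-type read ratio, measured by Illumina sequencing of plasmids before and after bacterial one-hybrid selection. The scale puts cognate at 1 and non-cognate at 0. Selection of Caulobacter ParB libraries, four specificity codons randomised, took place in E. coli USO with a HIS3 reporter, site 19 bp from the promoter, over 48 hours at 37°C on M9-minus-histidine with 0.1 mM IPTG and 5 mM 3-AT.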
row,Variant,one-hybrid fitness for binding NBS DNA
1,MFCV,≤ 0.2
2,AKCT,≤ 0.2
3,QIYR,0.348
4,MILG,≤ 0.2
5,TRNA,≤ 0.2
6,QSSH,≤ 0.2
7,MCGC,≤ 0.2
8,KYKT,0.328
9,IEEG,≤ 0.2
10,QPTV,≤ 0.2
11,QCWI,≤ 0.2
12,RLEG,≤ 0.2
13,HETT,≤ 0.2
14,LMCS,≤ 0.2
15,MGNE,≤ 0.2
16,NNDT,≤ 0.2
17,TYDG,≤ 0.2
18,REPN,≤ 0.2
19,AWAN,≤ 0.2
20,EFEV,≤ 0.2
21,YCPT,≤ 0.2
22,QIKI,≤ 0.2
23,VTWT,≤ 0.2
24,STSQ,≤ 0.2
25,NGPW,≤ 0.2
26,FGVR,0.232

row,Variant,one-hybrid fitness for binding NBS DNA
1,PSST,≤ 0.2
2,NTLY,≤ 0.2
3,SFRP,≤ 0.2
4,EGNT,≤ 0.2
5,KDCT,≤ 0.2
6,DPAV,≤ 0.2
7,ANVS,≤ 0.2
8,RHFN,≤ 0.2
9,RWTS,≤ 0.2
10,SEMH,≤ 0.2
11,AFRF,≤ 0.2
12,VVLF,≤ 0.2
13,ENPC,≤ 0.2
14,QTKV,0.599
15,RHQW,≤ 0.2
16,RNKP,≤ 0.2
17,VMCC,≤ 0.2
18,NSTH,≤ 0.2
19,LPRD,≤ 0.2
20,DFKS,≤ 0.2
21,MQDS,≤ 0.2
22,PNMI,≤ 0.2
23,YVLL,≤ 0.2
24,QALT,0.352
25,GTKF,≤ 0.2
26,LLRY,≤ 0.2

row,Variant,one-hybrid fitness for binding NBS DNA
1,WDNR,≤ 0.2
2,WNAN,≤ 0.2
3,GVGR,0.24
4,TMKS,≤ 0.2
5,QSSQ,0.338
6,NAIR,≤ 0.2
7,PRFD,≤ 0.2
8,PTCN,≤ 0.2
9,SILV,≤ 0.2
10,AKHS,≤ 0.2
11,QAPC,≤ 0.2
12,QYCK,≤ 0.2
13,CSVY,≤ 0.2
14,VGLG,≤ 0.2
15,ERRI,≤ 0.2
16,PCMI,≤ 0.2
17,QKWR,0.462
18,ENTV,≤ 0.2
19,PAGG,≤ 0.2
20,DKCT,≤ 0.2
21,SGMC,≤ 0.2
22,HNHL,≤ 0.2
23,HHTR,≤ 0.2
24,TDWG,≤ 0.2
